The other results are listed elsewhere or left out. Values were computed here from the reads of four pooled replicates and scatter widely.
These sequences were tested against T1, Pho4 (S. cerevisiae) (UniProt P07270) (assay: relative binding free energy (BET-seq); higher = weaker binding). Conditions: reference: library average.
T1 sequence: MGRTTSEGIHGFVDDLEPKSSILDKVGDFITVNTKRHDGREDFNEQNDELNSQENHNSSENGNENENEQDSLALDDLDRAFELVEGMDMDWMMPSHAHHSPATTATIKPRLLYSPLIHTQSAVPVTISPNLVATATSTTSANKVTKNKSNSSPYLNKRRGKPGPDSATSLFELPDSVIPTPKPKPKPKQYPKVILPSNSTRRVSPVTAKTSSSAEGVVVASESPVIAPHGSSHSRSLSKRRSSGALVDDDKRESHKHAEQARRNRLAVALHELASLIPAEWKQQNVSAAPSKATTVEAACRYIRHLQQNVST

Row | Sequence | relative binding free energy
1 | TCGTACACGTGGTGGC | -0.01 kcal/mol
2 | AGTGACACGTGAGGTA | 0.16 kcal/mol
3 | ATAAGCACGTGTTAAT | -0.11 kcal/mol
4 | AATGGCACGTGGTAGC | -0.12 kcal/mol
5 | GCGATCACGTGTTAGG | 0.26 kcal/mol
6 | GGACGCACGTGGGTTT | -0.19 kcal/mol
7 | TGTGCCACGTGTTGGG | -0.13 kcal/mol
8 | AGTTTCACGTGATTGA | 0.39 kcal/mol
9 | TGGGGCACGTGGGGTC | -0.15 kcal/mol
10 | GTTGTCACGTGGTTAA | 0.08 kcal/mol
11 | TTGTTCACGTGACGGT | 0.45 kcal/mol
12 | TAATGCACGTGGTGGC | -0.04 kcal/mol
13 | GCCCTCACGTGGGGGG | -0.01 kcal/mol
14 | ATATTCACGTGTGGTC | 0.29 kcal/mol
15 | GCGGTCACGTGGATGA | 0.16 kcal/mol
16 | ATGTACACGTGTGTGA | 0.1 kcal/mol
17 | CGTTACACGTGTAGAG | 0.02 kcal/mol
18 | GAAGGCACGTGGCGGT | -0.15 kcal/mol
19 | GCCGGCACGTGGTTGG | -0.14 kcal/mol
20 | CGTCTCACGTGGGTGT | 0.01 kcal/mol
21 | GTGGGCACGTGGTTAA | -0.01 kcal/mol
22 | CTTGGCACGTGCTAGG | -0.1 kcal/mol
23 | TTGGGCACGTGTTTCA | -0.1 kcal/mol
24 | GAAGTCACGTGAGCGT | 0.3 kcal/mol
25 | GGTCACACGTGTATGT | 0.16 kcal/mol

Row | Sequence | relative binding free energy
26 | AGGTGCACGTGAGTTA | 0.17 kcal/mol
27 | TATAGCACGTGGGTAA | -0.22 kcal/mol
28 | GTGGGCACGTGGAACG | 0.04 kcal/mol
29 | CTTGTCACGTGGCGAG | -0.05 kcal/mol
30 | TATTGCACGTGACGGT | 0.14 kcal/mol
31 | GAGGGCACGTGAAAGG | 0.22 kcal/mol
32 | TTTATCACGTGCTTGT | 0 kcal/mol
33 | TTGACCACGTGGCTGG | 0.06 kcal/mol
34 | GTAGGCACGTGGTAGG | -0.14 kcal/mol
35 | GGCAGCACGTGATTGG | 0.09 kcal/mol
36 | GGTTACACGTGAAAGG | 0.49 kcal/mol
37 | CAGTTCACGTGGGTGG | 0.18 kcal/mol
38 | CTGTTCACGTGTAGAG | 0.25 kcal/mol
39 | GGTGTCACGTGCGTTT | 0.11 kcal/mol
40 | GGTAGCACGTGGAGTC | -0.02 kcal/mol
41 | CGAAGCACGTGTGTGT | -0.07 kcal/mol
42 | AATGACACGTGGTCGT | 0.09 kcal/mol
43 | ATGTTCACGTGCCTTG | 0.25 kcal/mol
44 | GGAGTCACGTGGTAGC | 0.25 kcal/mol
45 | GAGGCCACGTGGAAGG | 0.14 kcal/mol
46 | TAACGCACGTGGAGGT | -0.25 kcal/mol
47 | TTTGGCACGTGCCGTA | -0.14 kcal/mol
48 | GTCGTCACGTGCTGGG | 0.06 kcal/mol
49 | GTTTGCACGTGGAGTT | 0.03 kcal/mol
50 | TGGGTCACGTGGTATC | 0.09 kcal/mol

Row | Sequence | relative binding free energy
51 | TTTCGCACGTGGGTCG | -0.19 kcal/mol
52 | GCAGGCACGTGGGCTT | -0.15 kcal/mol
53 | AATTGCACGTGTTAAG | 0.04 kcal/mol
54 | GTGCTCACGTGGACTG | 0.25 kcal/mol
55 | TTGGACACGTGGGTCA | -0.05 kcal/mol
56 | CGAGTCACGTGTTTTT | 0.19 kcal/mol
57 | TAAAGCACGTGATTTA | 0.09 kcal/mol
58 | GTGTCCACGTGAGGCT | 0.31 kcal/mol
59 | GTTCACACGTGAGTTA | 0.31 kcal/mol
60 | GTGTTCACGTGTCGGT | 0.3 kcal/mol
61 | TAGAGCACGTGTTGGT | -0.04 kcal/mol
62 | TGGGACACGTGAGATT | 0.3 kcal/mol
63 | ATTTGCACGTGTGACT | 0.21 kcal/mol
64 | AGGACCACGTGTAGTT | 0.13 kcal/mol
65 | TTGGGCACGTGCCGGC | -0.17 kcal/mol
66 | GATGGCACGTGATGTT | 0.07 kcal/mol
67 | TAAGGCACGTGTTCTT | 0.01 kcal/mol
68 | AGGGACACGTGCTTTT | -0.01 kcal/mol
69 | GGATACACGTGAGTAG | 0.33 kcal/mol
70 | AATTGCACGTGGGTGG | -0.11 kcal/mol
71 | TTGAGCACGTGTGTTG | 0 kcal/mol
72 | CTCTACACGTGTTGGG | 0.1 kcal/mol
73 | TTGTGCACGTGTTAGT | -0.04 kcal/mol
74 | AATGGCACGTGAAAGT | 0.17 kcal/mol
75 | TTTACCACGTGGGTTG | -0.05 kcal/mol

Row | Sequence | relative binding free energy
76 | GAGTACACGTGGTGGT | 0.11 kcal/mol
77 | TGGTACACGTGACTGG | 0.15 kcal/mol
78 | TAGTGCACGTGGTATC | -0.15 kcal/mol
79 | TTTTTCACGTGGTAAC | 0.19 kcal/mol
80 | GGTGGCACGTGTTCAG | -0.05 kcal/mol
81 | CTATTCACGTGAGGTG | 0.41 kcal/mol
82 | ATGTTCACGTGTCTGA | 0.12 kcal/mol
83 | AATTTCACGTGTAATT | 0.39 kcal/mol
84 | AGATGCACGTGCTTTG | -0.01 kcal/mol
85 | TATATCACGTGGAATT | 0.13 kcal/mol
86 | AGGTGCACGTGCTGTA | -0.21 kcal/mol
87 | AATGGCACGTGAAGTA | 0.04 kcal/mol
88 | GAAGTCACGTGGCTTG | 0.15 kcal/mol
89 | ATGGGCACGTGTGCGG | -0.01 kcal/mol
90 | GGATACACGTGTTGTA | 0.11 kcal/mol
91 | GTGTGCACGTGTCTAG | -0.02 kcal/mol
92 | TGGGACACGTGTTGAC | 0.13 kcal/mol
93 | TTATGCACGTGATGAA | -0.02 kcal/mol
94 | TTTGGCACGTGTTGGC | -0.06 kcal/mol
95 | CACAGCACGTGGTGGG | -0.23 kcal/mol
96 | TATGTCACGTGAAGTG | 0.3 kcal/mol
97 | TTGGGCACGTGTTTAT | -0.14 kcal/mol
98 | TTGGCCACGTGAAGGA | 0.24 kcal/mol
99 | GTTTTCACGTGGCGCT | 0.22 kcal/mol
100 | TGGCGCACGTGGGACG | -0.14 kcal/mol

Row | Sequence | relative binding free energy
101 | CTGGACACGTGGATGT | 0.03 kcal/mol
102 | GTTCTCACGTGGTATG | 0.12 kcal/mol
103 | TACTTCACGTGGCGGG | 0.13 kcal/mol
104 | TGTGGCACGTGAATTT | 0.16 kcal/mol
105 | ATGTTCACGTGGCATA | 0.05 kcal/mol
106 | TTGTGCACGTGGATAC | 0 kcal/mol
107 | TTTTACACGTGTTACT | 0.08 kcal/mol
108 | CGATGCACGTGGCTGG | -0.14 kcal/mol
109 | TTCTTCACGTGGTGAG | 0.2 kcal/mol
110 | GAATACACGTGTGGGA | 0.22 kcal/mol
111 | TAGGCCACGTGAGCGG | 0.1 kcal/mol
112 | GTGTTCACGTGAGGGG | 0.49 kcal/mol
113 | TTTTTCACGTGAGGAA | 0.42 kcal/mol
114 | AAATGCACGTGGGTGA | -0.19 kcal/mol
115 | AACGGCACGTGTGTTT | -0.02 kcal/mol
116 | GGATGCACGTGGTTGG | -0.06 kcal/mol
117 | TATGTCACGTGCTAGG | 0.14 kcal/mol
118 | TTGATCACGTGGAATA | 0.09 kcal/mol
119 | AGTGCCACGTGGGTTT | -0.12 kcal/mol
120 | ATAGACACGTGTGGTT | 0.12 kcal/mol
121 | TTGAGCACGTGGGAGC | -0.2 kcal/mol
122 | GCTTTCACGTGTGGGT | 0.16 kcal/mol
123 | TGGGGCACGTGTAATA | -0.05 kcal/mol
124 | GTTTGCACGTGTTGTT | 0.17 kcal/mol
125 | TGGTTCACGTGACTTG | 0.22 kcal/mol

Row | Sequence | relative binding free energy
126 | CTGGTCACGTGTTGTT | 0.1 kcal/mol
127 | AGGGCCACGTGGGTCG | -0.12 kcal/mol
128 | GAATGCACGTGGAGGG | 0.05 kcal/mol
129 | TAGTCCACGTGGGGGG | -0.13 kcal/mol
130 | TCGCGCACGTGGATGT | -0.12 kcal/mol
131 | CTGGACACGTGCGGTT | 0.09 kcal/mol
132 | TGGGACACGTGTGGGT | 0.12 kcal/mol
133 | TGGGTCACGTGCGGGA | 0.08 kcal/mol
134 | TAGGGCACGTGCGTGT | -0.2 kcal/mol
135 | GTGTGCACGTGCTGCT | 0.04 kcal/mol
136 | AATTCCACGTGTAGTT | 0.11 kcal/mol
137 | AGGGTCACGTGCTATT | 0 kcal/mol
138 | ATTCGCACGTGAGGAT | 0.17 kcal/mol
139 | TTTAGCACGTGGGCGC | -0.25 kcal/mol
140 | TGATTCACGTGTGTGT | 0.31 kcal/mol
141 | AATCTCACGTGGTGGA | 0.25 kcal/mol
142 | TTGACCACGTGTGTGA | -0.08 kcal/mol
143 | GTTATCACGTGTAGTG | 0.19 kcal/mol
144 | TGTGTCACGTGAGTGA | 0.19 kcal/mol
145 | CGTGCCACGTGTTGTA | -0.04 kcal/mol
146 | AGTTGCACGTGGGCTT | -0.25 kcal/mol
